The whole screen tested about 410,000 compounds, of which about 5,000 (1.2%) were called active. This list was built around the results that the source calls inconclusive (neither active nor inactive); the mix of calls is not that of the screen. The call rests on the fitted dose curve; in most records, active means well fitted inhibition curve with a large enough effect; inconclusive means small, poorly fitted or top-dose-only effect; inactive means no such curve, though single readings can be large or run the other way. A potency beside an inconclusive call is a rough fit, not a confirmed value.
Assay: qHTS for Inhibitors of TGF-b; further: nearly all actives have a fitted effect of over 65% in size
Conditions: HepG2 CAGA-GFP TGF-b/SMAD3 reporter, GFP fluorescence, 18 h, TGF-beta stimulated, 500 pg/mL final; series mostly up to 46.1 µM; activity, negative = inhibition: at the top concentration
Outline: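 HEPG2 CAGA-GFP, 1000 cells/well; 2 h settle, 37 C; cpd via pin tool; TGF-b 500 pg/mL final; 18 h, 37 C; GFP imaging ex488/em500-530; %Activity normalised to -TGF-b and +DMSO controls; CRC fit, curve class.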
On the % scale 0 is the no-effect control and ±100 the full control effect; potency means the concentration at half of the fitted maximal effect; tags describe the fitted curve by direction and shape.

**Q.** Which Potency does the source give for `Cc1ccc(S(=O)(=O)NCC(=O)OCC(=O)c2cc(C)n(-c3ccccc3)c2C)cc1` here?
**A.** inconclusive: 35.5 µM [inhibitor, single point]

**Q.** Which Potency does the source give for `CCn1c(SCc2nc(-c3cccs3)no2)nnc1-c1c[nH]c2ccccc12` here?
**A.** inconclusive: 20 µM [inhibitor, single point]

**Q.** Which Potency does the source give for `CCCOP(=O)(c1ccc(N(C)C)cc1)C(Nc1ccccc1)c1ccc(C)cc1` (stereo unspecified) here?
**A.** inconclusive: 35.5 µM [inhibitor, single point]

**Q.** With `O=C(Nc1cccc(NC(=O)c2cc([N+](=O)[O-])ccc2Cl)n1)c1cc([N+](=O)[O-])ccc1Cl` as the compound, how does the Potency read?
**A.** inconclusive: 20 µM [inhibitor, single point]

**Q.** For `COc1ccccc1OC(C)C(=O)N1CCC(c2nc3ccccc3s2)CC1` (stereo unspecified), which Potency is on record?
**A.** inconclusive: 8.91 µM [inhibitor, partial curve, poor fit]

**Q.** With `O=C1C(NS(=O)(=O)c2ccc(Br)cc2)=C(N2CCCCC2)C(=O)c2ccccc21` as the compound, how does the Potency read?
**A.** inconclusive: 20 µM [inhibitor, partial curve, poor fit]

**Q.** Which Potency does the source give for `COc1ccc(Cn2c(=O)c3ccccc3n3c(-c4ccc(C)cc4)nnc23)cc1` here?
**A.** inconclusive: 6.31 µM [inhibitor, single point]

**Q.** For `COc1ccc(/C(C)=N/Nc2nc(C)cc(-c3ccccc3)n2)cc1`, which “activity, negative = inhibition” value is on record?
**A.** inactive: -11.2%

**Q.** Which Potency does the source give for `CCOc1ccc(NC(=O)c2ccc3nc(C(C)C)oc3c2)cc1` here?
**A.** inconclusive: 15.8 µM [inhibitor, single point]

**Q.** For `COc1ccc(Cn2c(C(=O)O)c(CNCc3ccc(C)o3)c3ccc(OC)cc32)cc1`, which Potency is on record?
**A.** inconclusive: 6.31 µM [inhibitor, single point]

**Q.** For `O=C(Nc1ccc(F)cc1F)Nc1sccc1-c1nc2ccccc2s1`, which Potency is on record?
**A.** active: 11.2 µM

**Q.** Which Potency does the source give for `O=C1NN=C(c2ccc(Cl)cc2)CC1c1c[nH]c2ccccc12` (stereo unspecified) here?
**A.** inconclusive: 8.91 µM [inhibitor, partial curve, poor fit]

**Q.** Which Potency does the source give for `CCC(C)S(=O)(=O)c1oc(-c2ccc(F)cc2)nc1S(=O)(=O)c1ccc(F)cc1` (stereo unspecified) here?
**A.** inconclusive: 0.447 µM [inhibitor, full curve, poor fit]

**Q.** Which “activity, negative = inhibition” value does the source give for `Cc1cc(C)cc(NC(=O)C2CCN(c3nc4ccccc4nc3C(F)(F)F)CC2)c1` here?
**A.** inactive: -0.364%

**Q.** For `OC(CNCc1ccco1)Cn1c2ccccc2c2ccccc21` (stereo unspecified), which Potency is on record?
**A.** inconclusive: 11.2 µM [inhibitor, single point]

**Q.** Which Potency does the source give for `COc1cc(-c2cnc3c(NC=O)cc(-c4ccc(C)cc4)cn23)cc(OC)c1OC` here?
**A.** inconclusive: 0.282 µM [inhibitor, full curve, poor fit]

**Q.** Which Potency does the source give for `CCNC(=O)C1CCCN(c2nn3cc(-c4ccc(C)cc4)nc3s2)C1` (stereo unspecified) here?
**A.** inconclusive: 3.16 µM [inhibitor, single point]

**Q.** Which Potency does the source give for `CC(C)(C)C1CCc2c(C(=O)NNC(=O)CCCC(=O)O)csc2C1` (stereo unspecified) here?
**A.** inconclusive: 5.62 µM [inhibitor, single point]

**Q.** Which Potency does the source give for `CCN(CC)S(=O)(=O)c1ccc2c(c1)N(CC(=O)NCCCN1CCN(c3cc(C)ccc3C)CC1)C(=O)CO2` here?
**A.** inconclusive: 20 µM [inhibitor, single point]

**Q.** Which “activity, negative = inhibition” value does the source give for `CN1CCN(C2(CNC(=O)COc3ccc(C(C)(C)C)cc3)CCCCC2)CC1` here?
**A.** inactive: -29.2%

**Q.** For `CN(CC(=O)Nc1c(Cl)cccc1Cl)C(=O)C1CSC2(C)CCC(=O)N12` (stereo unspecified), which “activity, negative = inhibition” value is on record?
**A.** inactive: -20.2%

**Q.** Which Potency does the source give for `Cc1cc(C)c2c(N)c(C(=O)N/N=C/c3cccs3)sc2n1` here?
**A.** inconclusive: 20 µM [inhibitor, single point]

**Q.** Which “activity, negative = inhibition” value does the source give for `CCOC(=O)c1c(-c2ccccc2)oc2cc(Br)c(OCc3ccccc3)cc12` here?
**A.** inactive: 0.336%

**Q.** For `CCn1c(=N)c(C(=O)NC2CCCC2)cc2c(=O)n3cc(C)ccc3nc21`, which Potency is on record?
**A.** inconclusive: 0.126 µM [inhibitor, full curve, poor fit]

**Q.** Which “activity, negative = inhibition” value does the source give for `OC(COCc1ccco1)CN1CCN(C(c2ccccc2)c2ccccc2)CC1` (stereo unspecified) here?
**A.** inactive: 6.29%

**Q.** With `COc1cc([N+](=O)[O-])cc(/C=N/NC(=O)c2cc(-c3ccccc3)nc3ccccc23)c1O` as the compound, how does the Potency read?
**A.** inconclusive: 25.1 µM [inhibitor, single point]

**Q.** For `Cc1c(NC(=O)C(=O)/C=C(\O)c2ccc(Br)cc2)c(=O)n(-c2ccccc2)n1C`, which Potency is on record?
**A.** inconclusive: 17.8 µM [inhibitor, partial curve, poor fit]

**Q.** With `CCOc1ccc(CCNC(=O)COC(=O)c2cccnc2SC)cc1OCC` as the compound, how does the Potency read?
**A.** inconclusive: 0.501 µM [inhibitor, full curve, poor fit]

**Q.** For `N#Cc1cc(-c2ccccc2)nc(Oc2ccc(Cl)cc2)n1`, which Potency is on record?
**A.** inconclusive: 35.5 µM [inhibitor, single point]

**Q.** With `CCc1cc(=O)oc2c3c(cc(OCC(=O)NC4CC4)c12)OC(C)(C)CC3` as the compound, how does the “activity, negative = inhibition” value read?
**A.** inactive: 22.4%

**Q.** Which Potency does the source give for `CCOC(=O)c1sc(Nc2cccc(Cl)c2)nc1C` here?
**A.** inconclusive: 14.1 µM [inhibitor, single point]

**Q.** With `Cc1ccccc1NC(=O)Nc1nc(C(N)C2CCCCC2)cs1` (stereo unspecified) as the compound, how does the Potency read?
**A.** inconclusive: 15.8 µM [inhibitor, single point]

**Q.** For `O=C(N/N=C/c1ccc(Br)cc1)c1ccc(Br)o1`, which “activity, negative = inhibition” value is on record?
**A.** inactive: 8.39%

**Q.** For `COc1ccc(NC(=O)[C@@H]2CC=C[C@@H]3CCN(Cc4ccccc4)C(=O)[C@@H]32)cc1`, which Potency is on record?
**A.** inconclusive: 22.4 µM [inhibitor, single point]

**Q.** Which Potency does the source give for `COc1cccc(NC(=O)C2CCN(S(=O)(=O)c3c(C)noc3/C=C/c3cccs3)CC2)c1` here?
**A.** inconclusive: 10 µM [inhibitor, partial curve]

**Q.** Which “activity, negative = inhibition” value does the source give for `Cc1ccsc1-c1cc2nc(NCCCN(C)C)n(C)c(=O)c2s1` here?
**A.** inactive: 5.75%

**Q.** For `NC(=O)c1ccc([N+](=O)[O-])cc1SCc1ccccc1`, which Potency is on record?
**A.** inconclusive: 17.8 µM [inhibitor, single point]

**Q.** For `COc1ccccc1/C=C/C1(C(=O)NC2CCCC2)CC(=O)N1c1ccc(F)cc1` (stereo unspecified), which Potency is on record?
**A.** inconclusive: 35.5 µM [inhibitor, single point]

**Q.** With `O=C(Nc1ccc(Cl)cc1)Nc1nc(-c2ccccc2)cs1` as the compound, how does the Potency read?
**A.** inconclusive: 1.78 µM [inhibitor, full curve]

**Q.** Which “activity, negative = inhibition” value does the source give for `CCOc1cccc2sc(N(CCN(C)C)C(=O)c3ccc4ccccc4c3)nc12` here?
**A.** inactive: -2.06%

**Q.** For `COc1ccc(CNc2ncnc3c2c(-c2ccccc2)cn3-c2cccc(C)c2)cc1`, which “activity, negative = inhibition” value is on record?
**A.** inactive: 0.349%

Reference: PubChem BioAssay AID588855 (National Center for Advancing Translational Sciences (NCATS), 2011)
